# Measurements from PubChem BioAssay AID588342 (National Center for Advancing Translational Sciences (NCATS), 2011).
# Among all 360,000 compounds or so, about 25,000 (6.9%) were called active. The shares of active, inactive and inconclusive entries below differ from those in the screen. The call rests on the fitted dose curve; in most records, active means well fitted inhibition curve with a large enough effect; inconclusive means small, poorly fitted or top-dose-only effect; inactive means flat fitted curve, though single readings scatter. Potencies of inconclusive entries are doubtful fits and often do not repeat.
# Biological target: Luciferin 4-monooxygenase (Photinus pyralis) (UniProt P08659)
# Sequence of UniProt P08659 (P08659 whole entry, looked up): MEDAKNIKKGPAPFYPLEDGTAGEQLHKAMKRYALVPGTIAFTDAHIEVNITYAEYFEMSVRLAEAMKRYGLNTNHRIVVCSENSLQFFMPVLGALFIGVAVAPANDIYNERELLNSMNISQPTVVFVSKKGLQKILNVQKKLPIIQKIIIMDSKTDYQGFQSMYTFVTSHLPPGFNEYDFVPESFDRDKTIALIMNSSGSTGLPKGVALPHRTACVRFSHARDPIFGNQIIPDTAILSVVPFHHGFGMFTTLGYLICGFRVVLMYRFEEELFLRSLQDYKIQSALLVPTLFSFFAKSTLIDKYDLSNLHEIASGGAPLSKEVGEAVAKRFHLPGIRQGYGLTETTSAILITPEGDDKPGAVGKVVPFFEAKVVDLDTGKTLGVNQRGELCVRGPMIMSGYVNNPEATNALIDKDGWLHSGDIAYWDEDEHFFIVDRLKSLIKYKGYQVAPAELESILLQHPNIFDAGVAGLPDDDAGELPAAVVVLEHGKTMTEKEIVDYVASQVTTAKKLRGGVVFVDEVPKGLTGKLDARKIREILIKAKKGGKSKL
# Assay: qHTS profiling assay for firefly luciferase inhibitor/activator using purifed enzyme and Km concentrations of substrates (counterscreen for miR-21 project); further: nearly all actives have a fitted effect of over 55% in size;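 on activity change, negative = inhibition: plate controls were vehicle for no effect and reference inhibitor for full effect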
# Conditions: purified FLuc, luminescence inhibition; series mostly up to 57.5 µM; activity change, negative = inhibition: at the top concentration
# How it was run: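 Purified P. pyralis luciferase (10nM final) with 10uM D-luciferin and 10uM ATP (Km levels) in 50mM Tris acetate pH 7.5, 10mM Mg acetate, 0.01% Tween-20, 0.05% BSA; qHTS 6-point titration, ~60 µM downward; luminescence read.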
# Potency means the concentration at half of the fitted maximal effect; tags describe the fitted curve by direction and shape.
Structure (SMILES),Potency,"activity change, negative = inhibition"
Cc1cc(O)c(C(=O)/C=C/c2ccccc2Br)c(=O)o1,"inconclusive: 16.9 µM [inhibitor, partial curve]",–
O=C(NCCSCc1c(F)cccc1Cl)c1ccco1,"inconclusive: 23.9 µM [inhibitor, partial curve, poor fit]",–
O=C(Nc1cccnc1Cl)c1cccc(S(=O)(=O)N2CCOCC2)c1,–,inactive: 0.0857%
CCOc1cc(C2CC(=O)Nc3c2c(=O)nc(SCc2cccc(Cl)c2)n3C)ccc1O (configuration not stated),"inconclusive: 21.3 µM [inhibitor, partial curve, poor fit]",–
COC(=O)c1ccc(/C=C2/C(=O)Oc3ccccc32)cc1,active: 2.69 µM,–
O=c1oc2ccccc2cc1NCc1ccccc1O,active: 15.1 µM,–
CSCC(C)N1CCC(CCC(=O)NC2CC2)CC1 (configuration not stated),–,inactive: 0.153%
O=C(NCC1CCCO1)c1cc(-c2ccccc2)on1 (configuration not stated),active: 15.1 µM,–
Cc1ccc(CNC(=O)c2cccc(NC(=O)N3CCSc4ncccc43)c2)cc1,–,inactive: -13.5%
CC(NS(=O)(=O)c1c(N)n(C)c(=O)n(C)c1=O)c1ccccc1 (configuration not stated),–,inactive: 4.84%
Cc1cccc(Nc2nc(N)nc(CCl)n2)c1C,"inconclusive: 26.9 µM [inhibitor, partial curve, poor fit]",–
O=C(Nc1ccon1)c1ccc(N2CCCCC2)c([N+](=O)[O-])c1,active: 12 µM,–
Cc1ccccc1C(=O)Nc1nc(=S)ss1,"inconclusive: 23.9 µM [inhibitor, single point]",–
Cc1ccc(Cn2ccnc2SCC(=O)Nc2ccc3c(c2)OCCO3)cc1,"inconclusive: 37.9 µM [inhibitor, partial curve, poor fit]",–
S=C(c1ccc(-c2ccc(Cl)cc2Cl)o1)N1CCCC1,active: 10.7 µM,–
COC1=C(Nc2ccccc2OC)C(=O)c2ccccc2C1=O,"inconclusive: 30.1 µM [inhibitor, partial curve, poor fit]",–
O=C(c1cnn(-c2ccc(Cl)cc2)c1)c1ccccc1O,active: 2.13 µM,–
COc1cc(C)ccc1OCCCOc1c(Cl)cccc1Cl,–,inactive: -13.6%
Cc1ccc(-c2nc3cc(N)ccc3o2)c(C)c1,active: 0.675 µM,–
COc1cc(C(=O)NCC(=O)OCC(=O)Nc2nnc(-c3ccccc3)o2)cc(OC)c1OC,"inconclusive: 37.9 µM [inhibitor, partial curve, poor fit]",–
CC(=O)c1ccc(N2CCN(C(=O)c3ccc4c(=O)n(-c5ccccc5)c(=O)[nH]c4c3)CC2)cc1,–,inactive: -4.4%
O=C(/C=C/c1ccccc1[N+](=O)[O-])NCCN1C(=O)S/C(=C\c2ccc(F)cc2)C1=O,"inconclusive: 0.757 µM [inhibitor, partial curve, poor fit]",–
COc1cccc(OC)c1C(=O)Nc1cccc(NC(=O)c2cccs2)c1,"inconclusive: 30.1 µM [inhibitor, single point]",–
Fc1ccc(C2=NNC(=NCc3ccccc3)SC2)cc1F,"inconclusive: 26.9 µM [inhibitor, single point]",–

Structure (SMILES),Potency,"activity change, negative = inhibition"
CCOc1ccccc1NC(=O)CSc1nnc(CCC(=O)Nc2ccccc2F)n1C,–,inactive: -0.269%
Cc1ccc(NC(=O)COC(=O)c2ccc(Cl)cc2)cc1S(=O)(=O)N(C)C,–,inactive: -12.1%
Cc1ccnc(NC(=O)c2cc(-c3ccc(Cl)s3)nc3ccccc23)c1,"inconclusive: 23.9 µM [inhibitor, partial curve, poor fit]",–
C/C(N)=C(/C#N)C(=O)COC(=O)c1cc(-c2ccccc2)nc2ccc(Br)cc12,"inconclusive: 12 µM [inhibitor, partial curve]",–
COc1ccc(NC(=O)C2=CN3CCS(=O)(=O)N=C3C=C2)c(OC)c1,–,inactive: -1.78%
O=C(Nc1ccc2oc(-c3ccccc3)nc2c1)c1ccc2c(c1)OCCO2,active: 5.36 µM,–
Cc1cc2oc(C(=O)Nc3sc4c(c3C(=O)NCc3ccccc3)CCCC4)cc(=O)c2cc1C,–,inactive: -2.85%
Cc1ccc(OCC(=O)NNC(=O)c2ccco2)c(C)c1,active: 12 µM,–
Cc1cc(C)n(CC(O)COc2ccc(Cl)cc2Cl)n1 (configuration not stated),"inconclusive: 16.9 µM [inhibitor, partial curve]",–
O=C(CNC(=O)c1cccs1)N/N=C/c1cccc(Br)c1,"inconclusive: 33.8 µM [inhibitor, partial curve, poor fit]",–
Fc1ccc(-n2cc(CNCCc3cccnc3)c(-c3ccccc3Cl)n2)cc1,"inconclusive: 33.8 µM [inhibitor, partial curve, poor fit]",–
CC(=O)c1ccc(OCC(=O)c2cc(C)n(-c3ccc4c(c3)OCO4)c2C)cc1,"inconclusive: 10.7 µM [inhibitor, partial curve]",–
CC(C(=O)Nc1nc2ccccc2s1)n1cc([N+](=O)[O-])cn1 (configuration not stated),"inconclusive: 21.3 µM [inhibitor, partial curve, poor fit]",–
Cc1cnc(CNC(=O)C2CCC(=O)N(Cc3ccc(Cl)cc3)C2)[nH]1 (configuration not stated),–,inactive: -0.217%
O=C(NC(=S)Nc1ccc(Cl)cn1)C12CC3CC(CC(C3)C1)C2,active: 10.7 µM,–
O=C(COC(=O)c1ccccc1OCc1ccc(Cl)cc1)NC1CC1,"inconclusive: 21.3 µM [inhibitor, partial curve, poor fit]",–
COc1ccc(CCNC(=O)c2ccc3c(SCC(=O)O)c4c(nc3c2)CCCC4)cc1OC,"inconclusive: 37.9 µM [inhibitor, partial curve, poor fit]",–
CCOC(=O)N1CCc2c(sc3[nH]c(=S)[nH]c(=S)c23)C1,"inconclusive: 37.9 µM [inhibitor, single point]",–
O=C(/C=C/c1ccco1)NCC1COc2ccccc2O1 (configuration not stated),"inconclusive: 21.3 µM [inhibitor, partial curve, poor fit]",–
CCc1ccccc1NC(=O)c1cccc(NC(=O)/C=C/c2ccco2)c1,active: 3.01 µM,–
CC(=O)N1c2c(cc(Br)cc2S(=O)(=O)N2CCN(c3ccccc3F)CC2)CC1C (configuration not stated),–,inactive: -0.313%
COc1ccc(OCCC(=O)N2CCCCC2)cc1,"inconclusive: 30.1 µM [inhibitor, partial curve, poor fit]",–
Cc1cccc(OCC(=O)N(Cc2ccc(C(C)C)cc2)Cc2ccco2)c1C,–,inactive: 0.0838%
